# Assay results taken from patent publication US20240175865A1, “IMPROVED PROCESSES FOR RATIONALLY-DESIGNING AND PRODUCING BIOMOLECULES” (Her Majesty The Queen in Right of Canada, as represented by …, priority 2020, published 2024).
# Legend:
# [1] = target: Escherichia coli EF-Tu variant T34C L265C, IAEDANS/DDPM conjugate (parent EF-Tu SEQ ID NO: 3) (Escherichia coli, UniProt P0CE47, L265C/T34C); test: biochemical; type: binding; conditions: 20° C., TAKM7
# [2] = target: T1, Escherichia coli EF-Tu variant L265C, Dansyl conjugate (parent EF-Tu SEQ ID NO: 3) (Escherichia coli, UniProt P0CE47, L265C); test: biochemical; type: binding; conditions: for koff: in presence of EDTA (10 mM), 20° C., read-out: nucleotide dissociation rate
# T1 construct: […]
# [3] = target: Escherichia coli EF-Tu variant T34C L265C (parent EF-Tu SEQ ID NO: 3) (Escherichia coli, UniProt P0CE47, L265C/T34C); test: biochemical; type: binding; conditions: 20° C., TAKM7
# [4] = target: T2, Escherichia coli EF-Tu variant E202C, Dansyl conjugate (parent EF-Tu SEQ ID NO: 3) (Escherichia coli, UniProt P0CE47, E202C); test: biochemical; type: binding; conditions: 20° C., TAKM7
# T2 construct: […]
# [5] = Conformational change of labelled EF-Tu·GDP or EF-Tu·GTP upon mixing with 10 mM EDTA, stopped-flow; conditions: excitation 335 nm
# [6] = Equilibrium fluorescence of labelled EF-Tu bound to GTP or GDP; type: binding
# Procedure: Equilibrium fluorescence experiments. […] For all experiments labelled EF-Tu binary complexes were formed by incubating EF-Tu with a 100-fold molar excess of either GTP or GDP at 37° C. for 20 min.
# Hydrolysis Protection Assay. EF-Tu·GTP·[^14C]Phe-tRNAPhe ternary complexes were formed as described previously and incubated at 37° C. Aliquots were removed at various time points (0-100 min) and the amount of [^14C]Phe was measured using a Tri-Carb 2800TR Perkin Elmer Liquid Scintillation Analyzer and data plotted as described previously (E. I. DE […], F. MO, H. J. WIEDEN, Construction of a fully active Cys-less elongation factor Tu: functional role of conserved cysteine 81, Biochimica et biophysica acta 1814(5) (2011) 684-92.). The fluorescent dye 5-(2-iodoacetylaminoethyl)aminonaphthalene-1-sulfonic acid (IAEDANS, λex=336 nm, λem=454 nm) and the fluorescent quencher N-(4-dimethylamino-3,5-dinitrophenyl)maleimide (DDPM) were selected as they have a small reported R0 (˜27 Å). […] This was confirmed to not be due to a difference in EF-Tu concentration and indeed a difference in FRET by trypsin digestion (FIG. 17). […]
# This conformational change is an order of magnitude slower than two previously measured GTP rates (0.0016±0.002s^−1).
# [7] = mantGDP complex mixed with excess GTP/GDP, read-out: GDP Dissociation Rate Koff
# [8] = mantGTP complex mixed with excess GTP/GDP, read-out: GTP Dissociation Rate koff
compound,measurement,setting,value
"Nc1nc2c(ncn2[C@@H]2O[C@H](COP(=O)(O)OP(=O)(O)O)[C@@H](O)[C@H]2O)c(=O)[nH]1 [GDP, guanosine diphosphate]",koff,[1]; [7],0.003 ± 0.001 s⁻¹
same,koff,[2],0.45 ± 0.26 s⁻¹
same,koff,[3]; [7],0.002 ± 0.001 s⁻¹
same,koff,[4]; [7],0.05 s⁻¹
"Nc1nc2c(ncn2[C@@H]2O[C@H](COP(=O)(O)OP(=O)(O)OP(=O)(O)O)[C@@H](O)[C@H]2O)c(=O)[nH]1 [GTP, guanosine triphosphate]",koff,[1]; [8],0.014 ± 0.002 s⁻¹
same,apparent rate of fluorescence (conformational) change upon mixing with EDTA,"[2]; GTP-bound protein, 10 mM EDTA, excitation 280 nm (FRET)",0.05 ± 0.02 s⁻¹
same,koff,[2],0.35 ± 0.19 s⁻¹
same,koff,[3]; [8],0.02 ± 0.01 s⁻¹
same,koff,[4]; [8],0.015 ± 0.005 s⁻¹
EF-Tu E202C-Dansyl: Escherichia coli EF-Tu E202C single labelled with Dansyl; conformational biosensor,"change in fluorescence upon mixing with EDTA, GDP-bound",[5]; EF-Tu·GDP,~15%
same,"change in fluorescence upon mixing with EDTA, GTP-bound",[5]; EF-Tu·GTP,5%
same,increase in fluorescence when bound to GTP relative to GDP,[6]; direct excitation at 335 nm,~1.5 ×
EF-Tu T34C L265C-IAEDANS/DDPM: Escherichia coli EF-Tu T34C L265C double labelled with IAEDANS and quencher DDPM; FRET biosensor,IAEDANS fluorescence when bound to GTP relative to GDP,[6]; excitation at 336 nm,~4 ×

# Like-named read-outs stand apart in the source and are kept apart here.
